Consider 31 molecules from PMC9911399, “Two distinct binding modes provide the RNA-binding protein RbFox with extraordinary sequence specificity”.

Changes are numbered by the printed parent chain; changes in the protein carry UniProt numbers. This is one part of the list.

B1: CUGGCAC (DNA:RNA)
RNA: GGGAGACCGGAAUUCAGAUUGUCCCUGGCACUUAAAUCCCGUCGUAGCCACCA
DNA 1: CAATCTGAATTCCGGTCTCCC
DNA 2: TGGTGGCTACGACGGGATT
B2: UUGGAGA (DNA:RNA)
RNA: B1 RNA with C25U, C29A, A30G, C31A
DNA 1: CAATCTGAATTCCGGTCTCCC
DNA 2: TGGTGGCTACGACGGGATT
B3: GUUAAAA (DNA:RNA)
RNA: B1 RNA with C25G, G27U, G28A, C29A, C31A
DNA 1: CAATCTGAATTCCGGTCTCCC
DNA 2: TGGTGGCTACGACGGGATT
B4: AUACAUA (DNA:RNA)
RNA: B1 RNA with C25A, G27A, G28C, C29A, A30U, C31A
DNA 1: CAATCTGAATTCCGGTCTCCC
DNA 2: TGGTGGCTACGACGGGATT
B5: AGAAGAC (DNA:RNA)
RNA: B1 RNA with C25A, U26G, G27A, G28A, C29G
DNA 1: CAATCTGAATTCCGGTCTCCC
DNA 2: TGGTGGCTACGACGGGATT
B6: ACCGACG (DNA:RNA)
RNA: B1 RNA with C25A, U26C, G27C, C29A, A30C, C31G
DNA 1: CAATCTGAATTCCGGTCTCCC
DNA 2: TGGTGGCTACGACGGGATT
B7: UGUACCU (DNA:RNA)
RNA: B1 RNA with C25U, U26G, G27U, G28A, A30C, C31U
DNA 1: CAATCTGAATTCCGGTCTCCC
DNA 2: TGGTGGCTACGACGGGATT
B8: UCUCGGG (DNA:RNA)
RNA: GGGAGACCGGAAUUCAGAUUGUCCUCUCGGGUUAAAUCCCGUCGUAGCCACCA
DNA 1: CAATCTGAATTCCGGTCTCCC
DNA 2: TGGTGGCTACGACGGGATT
B9: GCUCAUG (DNA:RNA)
RNA: B8 RNA with U25G, G29A, G30U
DNA 1: CAATCTGAATTCCGGTCTCCC
DNA 2: TGGTGGCTACGACGGGATT
B10: UAAAGGC (DNA:RNA)
RNA: B8 RNA with C26A, U27A, C28A, G31C
DNA 1: CAATCTGAATTCCGGTCTCCC
DNA 2: TGGTGGCTACGACGGGATT
B11: AAUGUUG (DNA:RNA)
RNA: B8 RNA with U25A, C26A, C28G, G29U, G30U
DNA 1: CAATCTGAATTCCGGTCTCCC
DNA 2: TGGTGGCTACGACGGGATT
B12: GAGUUGU (DNA:RNA)
RNA: B1 RNA with C25G, U26A, G28U, C29U, A30G, C31U
DNA 1: CAATCTGAATTCCGGTCTCCC
DNA 2: TGGTGGCTACGACGGGATT
B13: GUACGUA (DNA:RNA)
RNA: B8 RNA with U25G, C26U, U27A, G30U, G31A
DNA 1: CAATCTGAATTCCGGTCTCCC
DNA 2: TGGTGGCTACGACGGGATT
B14: UUGGUCU (DNA:RNA)
RNA: B1 RNA with C25U, C29U, A30C, C31U
DNA 1: CAATCTGAATTCCGGTCTCCC
DNA 2: TGGTGGCTACGACGGGATT
B15: CCUGUAG (DNA:RNA)
RNA: B1 RNA with U26C, G27U, C29U, C31G
DNA 1: CAATCTGAATTCCGGTCTCCC
DNA 2: TGGTGGCTACGACGGGATT
B16: UCAGAGC (DNA:RNA)
RNA: B8 RNA with U27A, C28G, G29A, G31C
DNA 1: CAATCTGAATTCCGGTCTCCC
DNA 2: TGGTGGCTACGACGGGATT
B17: GAAUGGU (DNA:RNA)
RNA: B8 RNA with U25G, C26A, U27A, C28U, G31U
DNA 1: CAATCTGAATTCCGGTCTCCC
DNA 2: TGGTGGCTACGACGGGATT
B18: AGCAGCG (DNA:RNA)
RNA: B8 RNA with U25A, C26G, U27C, C28A, G30C
DNA 1: CAATCTGAATTCCGGTCTCCC
DNA 2: TGGTGGCTACGACGGGATT
B19: UCACACA (DNA:RNA)
RNA: B8 RNA with U27A, G29A, G30C, G31A
DNA 1: CAATCTGAATTCCGGTCTCCC
DNA 2: TGGTGGCTACGACGGGATT
B20: GACAGGC (DNA:RNA)
RNA: B8 RNA with U25G, C26A, U27C, C28A, G31C
DNA 1: CAATCTGAATTCCGGTCTCCC
DNA 2: TGGTGGCTACGACGGGATT
B21: AAGAGUC (DNA:RNA)
RNA: B1 RNA with C25A, U26A, G28A, C29G, A30U
DNA 1: CAATCTGAATTCCGGTCTCCC
DNA 2: TGGTGGCTACGACGGGATT
B22: UUAAUCG (DNA:RNA)
RNA: B8 RNA with C26U, U27A, C28A, G29U, G30C
DNA 1: CAATCTGAATTCCGGTCTCCC
DNA 2: TGGTGGCTACGACGGGATT
B23: CAAGGAA (DNA:RNA)
RNA: B1 RNA with U26A, G27A, C29G, C31A
DNA 1: CAATCTGAATTCCGGTCTCCC
DNA 2: TGGTGGCTACGACGGGATT
B24: ACAGCAC (DNA:RNA)
RNA: B1 RNA with C25A, U26C, G27A
DNA 1: CAATCTGAATTCCGGTCTCCC
DNA 2: TGGTGGCTACGACGGGATT
B25: AUAGGGU (DNA:RNA)
RNA: B1 RNA with C25A, G27A, C29G, A30G, C31U
DNA 1: CAATCTGAATTCCGGTCTCCC
DNA 2: TGGTGGCTACGACGGGATT
B26: CUACGUC (DNA:RNA)
RNA: B1 RNA with G27A, G28C, C29G, A30U
DNA 1: CAATCTGAATTCCGGTCTCCC
DNA 2: TGGTGGCTACGACGGGATT
B27: GGUCACU (DNA:RNA)
RNA: B8 RNA with U25G, C26G, G29A, G30C, G31U
DNA 1: CAATCTGAATTCCGGTCTCCC
DNA 2: TGGTGGCTACGACGGGATT
B28: CGCGCGU (DNA:RNA)
RNA: B1 RNA with U26G, G27C, A30G, C31U
DNA 1: CAATCTGAATTCCGGTCTCCC
DNA 2: TGGTGGCTACGACGGGATT
B29: CCGUUUG (DNA:RNA)
RNA: B1 RNA with U26C, G28U, C29U, A30U, C31G
DNA 1: CAATCTGAATTCCGGTCTCCC
DNA 2: TGGTGGCTACGACGGGATT
B30: UCAGGGU (DNA:RNA)
RNA: B8 RNA with U27A, C28G, G31U
DNA 1: CAATCTGAATTCCGGTCTCCC
DNA 2: TGGTGGCTACGACGGGATT
B31: CUAAUGU (DNA:RNA)
RNA: B1 RNA with G27A, G28A, C29U, A30G, C31U
DNA 1: CAATCTGAATTCCGGTCTCCC
DNA 2: TGGTGGCTACGACGGGATT

This assay addresses T1, RBFOX1 RRM RbFoxmut (Fox-RRM*) (Homo sapiens, UniProt Q9NWB1 109-208, R118D;E147R;N151S;E152T).
T1 sequence: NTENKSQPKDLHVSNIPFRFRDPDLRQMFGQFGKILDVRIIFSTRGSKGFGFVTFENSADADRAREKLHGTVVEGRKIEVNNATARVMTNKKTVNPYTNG
Nature of the assay: EMSA; HiTS-Eq, 1 nM pool, 10 min; buffer printed only for the single-RNA assays: 10 mM Tris pH 7.5, 150 mM NaCl, 3.4 mM EDTA, 0.001% NP-40, 30 C. Particulars: tags: His6 N-terminal (pET28a); label: 5' 32P. A digest of the protocol: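 Purified wild-type or mutant RbFox RRM at increasing concentrations was equilibrated with 1 nM of 5′-radiolabelled RNA carrying 7 randomized nucleotides for 10 min in 50 µL. Unbound RNA was separated by 8% native PAGE and sequenced. Relative association constants came from read-count changes of each RNA species compared with the control reaction, normalised to the cognate motif.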
In general terms: A gel shift assay detects complexes by their altered migration in electrophoresis.
For B1, the binding signal is 0.0831 KA relative to UGCAUGU. In the case of B2 it was 0.0955 KA relative to UGCAUGU; in that of B3, 0.108 KA relative to UGCAUGU; in that of B4, 0.12 KA relative to UGCAUGU.

For the molecule B5, the binding signal is 0.0963 KA relative to UGCAUGU. Next, B6: 0.0909 KA relative to UGCAUGU; B7: 0.104 KA relative to UGCAUGU; B8: 0.0745 KA relative to UGCAUGU. In the case of B9 it was 0.112 KA relative to UGCAUGU. In the case of B10 it was 0.0757 KA relative to UGCAUGU; in that of B11, 0.143 KA relative to UGCAUGU; in that of B12, 0.138 KA relative to UGCAUGU. Take B13: the binding signal is 0.228 KA relative to UGCAUGU. Next, B14: 0.111 KA relative to UGCAUGU; B15: 0.166 KA relative to UGCAUGU. As to B16, the binding signal is 0.0985 KA relative to UGCAUGU. In the case of B17 it was 0.748 KA relative to UGCAUGU; in that of B18, 0.113 KA relative to UGCAUGU. In the case of B19 it was 0.0876 KA relative to UGCAUGU. In the case of B20 it was 0.0743 KA relative to UGCAUGU. Consider B21, for which the binding signal is 0.0893 KA relative to UGCAUGU. In the case of B22 it was 0.0651 KA relative to UGCAUGU; in that of B23, 0.0865 KA relative to UGCAUGU.

For the molecule B24, the binding signal is 0.0948 KA relative to UGCAUGU.

In the case of B25, the binding signal is 0.117 KA relative to UGCAUGU. With B26, the binding signal is 0.0942 KA relative to UGCAUGU. In the case of B27 it was 0.0558 KA relative to UGCAUGU.

With B28, the binding signal is 0.135 KA relative to UGCAUGU.

As to B29, the binding signal was 0.323 KA relative to UGCAUGU.

For B30, the binding signal is 0.0995 KA relative to UGCAUGU. In the case of B31 it was 0.101 KA relative to UGCAUGU.
